Results published in PubChem BioAssay (NCI).
“And” between values parts separate entries of the source, which are not always exact repeats. Identical values can stand only once.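 Where inhibition never reached the appropriate level, the endpoint shown equals the highest concentration tested. Otherwise, values were interpolated linearly from a five-concentration, 48-hour dose response in 96-well plates. At the GI50, growth is halved. TGI: concentration producing complete growth inhibition.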

System: NCI-H322M lung
Assay: NCI tumour cell line growth inhibition, 48 h

SMILES	TGI	GI50
NCCCCNCCCNC(=O)CNC(=O)CC(O)C(N)CCCC(NC(=O)C(CN)NC(=O)C(O)CNC(=O)CC(N)c1ccc(O)cc1)C(=O)O (configuration not stated)	> 10 µM	–
COC(=O)C1=C(OC(=O)c2ccc(Cl)cc2)C(C(=O)OC)[C@@]2(O)[C@@H](C(=O)OC)C(c3ccccc3C(F)(F)F)C[C@@H]1[C@@H]2C(=O)OC (some centres not stated)	61.6 µM	25.1 µM
c1c(N2CCOCC2)ssc1=[N+]1CCOCC1	> 100 µM	–
CC12CC3(C)CC(C)(C1)CC(N=[N+]=[N-])(C2)C3	> 100 µM	–
COc1ccc(C2Oc3c(OC)cc(CCCO)cc3C2CO)cc1OC (configuration not stated)	> 100 µM	–
N#CC(C#N)SCc1ccccc1	> 100 µM	–
O=C1[C@@H](c2ccc(Cl)cc2)[C@H]2CC=C[C@H]2N1O	> 100 µM	–
O=CN1CCN(C(=O)c2ccco2)C1=S	47.7 µM	–
CC1(C)N=C(N)N=C(N)N1c1cccc(OCc2cccc(N)c2)c1	> 100 µM	–
COC(=O)C1=C(C)NC(C)=C(C(=O)OC)C1c1cccc(N=O)c1	> 100 µM	–
C=C1CC(COc2ccc3c(C)c(C)c(=O)oc3c2C)(c2ccccc2)OC1=O (configuration not stated)	23.9 µM	–
COc1cc2c3c(cc(Cl)nc3c1OC)C(=O)C(=O)N2	31.5 µM	–
Cc1cccc(NS(=O)(=O)c2ccc(N=Nc3c(O)c(C(=O)O)cc4ccccc34)cc2)n1	> 100 µM	–
CC[N+]1(C)CCC(O)(c2ccc(C)cc2)C(C(=O)c2ccc(C)cc2)C1 (configuration not stated)	> 100 µM	–
O=c1ccn(-c2ccccn2)c(=O)n1-c1ccccn1	> 100 µM	–
COc1ccc2c(c1)-c1c(c3cc(OC)ccc3n1CCN(C)C)CC2	26.1 µM	–
COc1ccc(C2=C(Cl)C(=O)O/C2=C\c2ccc(OC)c(Br)c2)cc1Cl	> 100 µM	–
S=C(N/N=C/c1cc(Cl)cc(Cl)c1)NC12CC3CC(CC(C3)C1)C2	> 100 µM	5.23 µM
C=C1C[C@@H]2CC[C@@]34C[C@H]5O[C@H]6[C@@H](O3)[C@H]3O[C@H](CC[C@@H]3O[C@H]6[C@H]5O4)CC(=O)C[C@@H]3[C@@H](OC)[C@@H](C[C@H](O)CN)O[C@H]3C[C@H]3O[C@@H](CC[C@@H]1O2)C[C@@H](C)C3=C	> 1 µM	0.00294 µM
Cc1nc(SCC(N)=O)c2sc(=S)n(-c3ccccc3)c2n1	> 10 µM	–
CC(C)c1cccc(C(C)C)c1NC(=O)C(=O)C(C(=O)c1ccccc1-c1ccccc1)C1OC(=O)c2ccccc21 (configuration not stated)	32.6 µM	–
O=C(/C=C\Nc1ccccc1O)C(F)(F)F	> 100 µM	–
CC(=O)N(CCN)CCN	> 10 µM	–
Cc1nc2c(n1CC(C)(C)C)C(=O)c1ccccc1C2=O	> 100 µM	–
COc1ccc(OC)c(NC(=O)C(=O)C(C(=O)c2ccccc2F)C2OC(=O)c3ccccc32)c1 (configuration not stated)	> 100 µM	–

SMILES	TGI	GI50
O=P(OCc1ccccc1)(OCc1ccccc1)C(O)/C=C/c1ccccc1 (configuration not stated)	67.3 µM	–
CC1(C)OC[C@@H](C[C@H](O)COCc2ccccc2)O1	> 100 µM	–
O=C(CCc1nc(=S)[nH][nH]1)NC12CC3CC(CC(C3)C1)C2	> 100 µM	–
CS(=O)(=O)c1ccc(Cl)c([N+](=O)[O-])c1	35.2 µM	18.8 µM
COC(=O)C1=C(C(=O)OC)SC(=C2SC3=C(SC(=C4SCCS4)S3)S2)S1	> 100 µM	–
O=c1nc(-c2ccccc2)c2c3c(cccn13)CCC2	> 100 µM	–
Cc1cccc(NC(=O)c2sc3nc4c(cc3c2N)CCCC4)c1C	> 100 µM	0.719 µM
COC(=O)c1nc(NN)[nH]c(=O)c1CCCCCc1c(C(=O)OC)[nH]c(NN)cc1=O	> 100 µM	–
Nc1c(C(=O)Nc2ccc([As](=O)(O)O)cc2)cnc2nnnn12	> 100 µM	–
CC(CO)[C@H]1OC(=O)C=C2[C@@]13O[C@@H]3[C@H]1OC(=O)[C@@]3(C)[C@H]4O[C@H]4C[C@@]2(C)[C@@H]13 (some centres not stated)	> 27 µM	–
Cc1cc2c(cc1C)NC1=C(N2)OC(c2c[nH]c3ccc(COc4ccccc4)cc23)C1=O (configuration not stated)	> 100 µM	–
O=C(O)c1cc[c]([Hg][S]c2ncnc3nc[nH]c23)cc1	> 100 µM	15 µM
Cc1ccc(S(=O)(=O)c2c(O)c3ccc(O)c(C)c3oc2=O)cc1	> 100 µM	–
COc1ccc([C@H]2CC(=O)N3CCCC3N2)cc1 (some centres not stated)	> 100 µM	–
Cc1c(C)c2cc3c(=O)ccoc3c(C)c2oc1=O	> 100 µM	–
O=C(C(=O)c1ccc(Cc2ccc(C(=O)C(=O)c3ccccc3)cc2)cc1)c1ccccc1	> 100 µM	–
CN1C2CC(C#N)C1C=CC2=O (configuration not stated)	49.6 µM and > 100 µM	21.2 µM and > 100 µM
CN(C)c1ccc(/C=c2/c3ccccc3n3c2cc(-c2ccccc2)[n+]3C)cc1	2.59 µM	–
C[C@]12CC[C@@H]3c4ccc(O)c([N+](=O)[O-])c4CC[C@H]3[C@@H]1CC[C@@H]2NS(=O)(=O)c1ccc(C(F)(F)F)cc1	11 µM	3.05 µM
Cc1cc(N(CCNc2ccnc3cc(Cl)ccc23)Cc2ccc3c(c2)OCO3)nc(N2CCN(C)CC2)n1	9.39 µM	2.73 µM
COc1ccc(Cl)cc1Nc1nc(C(F)(F)F)ccc1C(=O)NN	> 100 µM	2.3 µM
C=C(C)[C@H]1CC(=O)/C(C)=C\CC/C(C)=C/CC[C@@]2(C)O[C@@H]2C1	> 100 µM	–
Clc1ccc(COC(Cn2ccnc2)c2ccc(Cl)cc2Cl)cc1 (configuration not stated)	20.2 µM and 25.5 µM and 25.7 µM	6.71 µM
CCCO/N=[N+](\[O-])N(CC)CC	> 100 µM	–
O=C(OC12CC3CC(CC(C3)C1)C2)c1ccc(NCc2cc(O)ccc2O)cc1	20.7 µM	–

SMILES	TGI	GI50
N#Cc1ccc(-c2nc(C#N)c(N)o2)cc1	> 10 µM	–
Cc1cc2c(C(C)C)c(O)c(O)c(C=Nc3cc(C(F)(F)F)ccc3Cl)c2c(O)c1-c1c(C)cc2c(C(C)C)c(O)c(O)c(C=Nc3cc(C(F)(F)F)ccc3Cl)c2c1O	> 100 µM	–
O=C1c2cccnc2S(=O)(=O)N1c1ccc([N+](=O)[O-])cc1	> 100 µM	–
Cc1cc(C)c2c(c1)CN1CN2Cc2cc(C)cc(C)c21	> 100 µM	–
CC(C)n1c(/C=C/[C@@H](O)C[C@@H](O)CC(=O)O)c(-c2ccc(F)cc2)c2ccccc21	> 100 µM	1.11 µM and 3.44 µM
CCCCCCCCCCCCOCCOCCOCCOCCOCCOCC(=O)NC(Cc1ccccc1)C(=O)Oc1ccc([N+](=O)[O-])cc1 (configuration not stated)	> 100 µM	–
CNC(=S)NNc1ncnc2c1c(-c1ccc(Cl)cc1)cn2-c1ccc(C)cc1	25.2 µM	–
O=C(O)C1=NN(c2ccc(S(=O)(=O)O)cc2)C2(C1)C(Cl)C(=O)N2c1nc2ccccc2s1 (configuration not stated)	50.7 µM	–
CC1CCc2sc3nc4n(c(=O)c3c2C1)CC(C)S4 (configuration not stated)	97.3 µM	–
CC(=O)c1cccc(N(/C=C/C(=O)C(F)(F)F)CC(=O)c2ccc(Cl)cc2)c1	> 100 µM	> 100 µM
COc1cc(Nc2ccnc(N3CCN(c4ccnc5cc(Cl)ccc45)CC3)n2)cc(OC)c1	> 100 µM	0.456 µM
Clc1cc(C(c2cc(Cl)sc2Cl)c2cc(Cl)sc2Cl)c(Cl)s1	> 100 µM	–
COc1ccc(C(=O)N2c3ccccc3Sc3ccccc32)c(F)c1	> 100 µM	8.13 µM
NC(N)=NS(=O)(=O)c1ccc(NC(=O)c2cccc3c(NNc4ccc(S(N)(=O)=O)cc4)c4ccccc4nc23)cc1	> 100 µM	–
C#CCOCC12C=CC(O1)C1COC(=O)C12 (configuration not stated)	> 100 µM	–
Cc1cc(O)c2c(c1)C(O)(c1ccc3c(c1O)C(=O)c1c(O)cc(C)cc1C3(O)C1OC(CO)C(O)C(O)C1O)c1cccc(O)c1C2=O (configuration not stated)	31.4 µM	–
N#C/C(=C\c1cccc(Br)c1)c1nc2ccccc2c(=O)[nH]1	> 100 µM	–
N#Cc1nc(C2CCC(=O)O2)oc1N (configuration not stated)	> 100 µM	–
Cn1c2c(c3ccccc31)CCN1C(=O)C34CCCC3CC21S4 (configuration not stated)	> 100 µM	–
C[n+]1cc2c3c(ccc2c2ccc4cc5c(cc4c21)OCO5)OCO3	2.47 µM	1.22 µM
CC[C@H](C)[C@H](NC(=O)c1cnccn1)C(=O)N(C)[C@H](C[C@@H](OC(C)=O)c1nc(C(=O)N[C@@H](Cc2ccccc2)C[C@H](C)C(=O)OC)cs1)C(C)C	> 33.3 µM	1.93 µM
CC(=O)OCC(=O)O[C@@H]1[C@H]2[C@@H](OC(=O)c3ccccc3)[C@@H](C)C[C@]2(O)[C@H](OC(C)=O)[C@@]2(C)C[C@]1(OC(C)=O)C[C@H]1C(=O)C(C)(C)[C@@H](OC(C)=O)[C@@H]12	> 25 µM	–
COC(=O)C1=CCON(c2ccccc2)C1c1ccccc1 (configuration not stated)	> 100 µM	–
Cn1cc(C2=C(c3cn(C)c4ccc(N)cc34)C(=O)NC2=O)c2ccccc21	> 25 µM	16.7 µM
NC(Cc1[nH]nc2ccccc12)C(=O)O (configuration not stated)	> 100 µM	–

SMILES	TGI	GI50
N#Cc1nc(CCCN2C(=O)c3ccccc3C2=O)oc1N	> 100 µM	–
COc1cc(-c2oc3ccccc3c(=O)c2O)cc(OC)c1OC	> 100 µM	–
CC1=C(C(=O)NC2CCCCC2)CC(C(=O)NC2CCCCC2)=C(C)N1	> 100 µM	–
CCOc1snc(C(Cl)(Cl)Cl)c1Cl	> 100 µM	–
CCc1ccccc1NC(=O)C(=O)C(C(=O)c1ccc(OC)cc1)c1ccc(OC)cc1 (configuration not stated)	> 100 µM	–
CC1(C)CCC(C)(C)c2cc(C(=O)Nc3ccc(C(=O)O)cc3)ccc21	> 87.1 µM	–
C[n+]1c(-c2ccc(NC(=O)c3ccc(C(=O)Nc4ccc(-c5cn6ccccc6[n+]5C)cc4)cc3)cc2)cn2ccccc21	> 100 µM	–
Cc1cc(OCc2nnc3sc(NC(=O)c4ccccc4)nn23)ccc1Cl	> 100 µM	–
COc1ccc(OC/C(N=Cc2ccncc2)=N/NC(=O)c2ccncc2)cc1	> 100 µM	–
O=C1CS/C(=N/N=C/c2cn(Cc3ccc(Cl)cc3Cl)c3ccccc23)N1	> 100 µM	–
O=[N+]([O-])/C(Cl)=C(/C(Cl)=C(Cl)Cl)N1CCCCC1	29.3 µM	–
COc1cc2c3cc1Oc1c(OC)c(OC)cc4c1C(Cc1ccc(O)c(c1)Oc1ccc(cc1)CC3N(C)CC2)CN(C)C4 (configuration not stated)	37.5 µM	–
CCOC(=O)/C=C(/C=C\COC1CCCCO1)c1ccccc1 (configuration not stated)	> 100 µM	–
CON(C)C(=O)C(C)NC(=O)OCc1ccccc1 (configuration not stated)	> 100 µM	–
N=C(N)SCc1cn2ccccc2n1	> 100 µM	–
CCOc1ccc(N=Nc2ccc3cc(/C(C)=N/NC(=O)/C(C#N)=C\c4ccc(N(CCC#N)CCC#N)cc4)c(=O)oc3c2)cc1	> 10 µM	–
COc1ccc(C2C(Cl)C(=O)N2n2cnc3ccccc3c2=O)cc1OC (configuration not stated)	> 100 µM	–
Cc1ccc(C(=O)/C(=C/c2ccc([N+](=O)[O-])cc2)S(=O)Cc2ccccc2)cc1 (configuration not stated)	3.47 µM	1.73 µM
CCN(CC)c1ccc(NC(=S)NN(C)C)cc1	> 10 µM	–
C/C(=N/N(C=O)C[n+]1ccccc1)C(CN(CC(C)C)CC(C)C)C(=O)Nc1ccc(C)cc1C (configuration not stated)	> 100 µM	–
O=c1oc2ccccc2c(O)c1C=NC(=S)c1ccncc1	> 100 µM	–
CCOc1ccc(NCC2CC/C(=C\C=C\c3ccccc3)C2=O)cc1 (configuration not stated)	> 100 µM	–
CC(=O)OC1CC2(O)C(CCC3(C)C(c4ccc(=O)oc4)CCC32O)C2(C)C1=CC(O)C1OC12 (configuration not stated)	0.127 µM	–
